Measurements published in PubChem BioAssay AID488969 (Vanderbilt High Throughput Screening Facility, 2010).
Values joined by “and” are separate entries in the source; they are usually repeats but may differ in a detail not shown here. Equal entries are not always repeated. In all, about 110,000 compounds were measured (“z-score”: median about -0.1, highest 2% from about 2 on). Some of the results follow. Active and inactive are the calls of the source.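 Rule for the calls: active = z-score in the third read window above 3 or below -3; inactive = the rest.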

Biological target: Metabotropic glutamate receptor 8 (Rattus norvegicus) (UniProt P70579)
Assay: mGluR8 Gi/Go-coupled signaling modulation – cell-based, rat, thallium flux, HTS, primary screen (AID 488969)
Details: HEK293 rat mGluR8, GIRK (G protein-gated inwardly rectifying potassium channel) thallium flux, FluoZin2; at 10 µM; stronger effect = higher value; submaximal glutamate (EC20) added with thallium

UniProt P70579, sequence (P70579 whole entry, looked up): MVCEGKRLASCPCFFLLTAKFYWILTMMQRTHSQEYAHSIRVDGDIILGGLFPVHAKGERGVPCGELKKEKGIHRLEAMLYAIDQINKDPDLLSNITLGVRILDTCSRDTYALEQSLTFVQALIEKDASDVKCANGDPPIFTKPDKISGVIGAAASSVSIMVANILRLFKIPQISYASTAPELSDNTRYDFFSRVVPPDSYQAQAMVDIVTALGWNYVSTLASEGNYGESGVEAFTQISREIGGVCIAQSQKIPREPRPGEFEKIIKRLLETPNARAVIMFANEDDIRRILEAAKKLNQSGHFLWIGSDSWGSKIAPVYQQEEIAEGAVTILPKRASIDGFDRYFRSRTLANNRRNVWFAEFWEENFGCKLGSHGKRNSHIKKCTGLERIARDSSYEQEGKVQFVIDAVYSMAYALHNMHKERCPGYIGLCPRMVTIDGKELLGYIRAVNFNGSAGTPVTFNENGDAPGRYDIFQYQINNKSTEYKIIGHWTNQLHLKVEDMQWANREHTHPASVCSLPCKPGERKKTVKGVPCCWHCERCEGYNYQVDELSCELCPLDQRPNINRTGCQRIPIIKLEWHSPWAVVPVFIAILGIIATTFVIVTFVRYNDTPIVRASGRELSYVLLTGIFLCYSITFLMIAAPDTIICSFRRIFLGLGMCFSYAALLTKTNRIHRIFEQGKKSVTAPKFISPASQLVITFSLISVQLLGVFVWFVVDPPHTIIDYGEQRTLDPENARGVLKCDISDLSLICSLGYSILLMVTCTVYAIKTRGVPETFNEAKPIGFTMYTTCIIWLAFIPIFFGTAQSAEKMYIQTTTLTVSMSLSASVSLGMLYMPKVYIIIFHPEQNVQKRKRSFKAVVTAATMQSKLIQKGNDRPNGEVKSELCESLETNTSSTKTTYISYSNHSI

In order of falling z-score:
1. O=C(CN1CCOCC1)Nc1ccc(C2CCCCC2)cc1  2.23
2. COC(=O)c1ccc2ccn(CC(=O)NC(C)C)c2c1  1.53
3. COc1ccc(C(=O)Nc2ccc([N+](=O)[O-])cn2)c(OC)c1  1.48
4. CCOc1cc(CNc2ccc(Br)cc2)cc(Br)c1OCC(=O)NC(C)(C)C  1.33
5. CCN(CC)CCCOc1ccc(C)cc1Br  1.32
6. Cc1ccc(S(=O)(=O)CC(=O)Nc2nc(-c3ccccc3)cs2)cc1  1.27
7. Nc1nnc(SCCN2C(=O)c3ccccc3S2(=O)=O)s1  0.889
8. CCOc1ccc(CCNC(=O)CN2CCN(Cc3ccc(F)cc3)C2=O)cc1OCC  0.704
9. O=C(N/N=C/C1C(c2ccccc2)C1(Cl)Cl)c1cccc(Br)c1 (stereo not drawn)  0.695
10. COc1ccccc1C(=O)Nc1ccc(CN2CCCCC2)cc1  0.53
11. Cc1ccc(C(=O)N2CCC(C(=O)NCc3cccnc3)CC2)cc1  0.509
12. O=C(CCN1C(=O)C2C3C=CC(C3)C2C1=O)Nc1nccs1 (stereo not drawn)  0.473
13. CCOC(=O)c1sc(=NC(=O)c2ccc(OC)c(OC)c2)n(C)c1C  0.451
14. CCOc1ccccc1C(=O)N[C@H](C(=O)Nc1nc2c(s1)CCCC2)C(C)C  0.39
15. CCOC(=O)Cn1nnnc1C(CC)N(Cc1ccccc1)Cc1cc2cc(C)ccc2[nH]c1=O (stereo not drawn)  0.34
16. C[N+]1=C(/C=C/Nc2ccccc2Cl)C(C)(C)c2ccccc21  0.3
17. COc1nc(Oc2ccc(C(=O)O)cc2)nc(Oc2ccc(C(=O)O)cc2)n1  0.286
18. CCN(CCNC(=O)CN(C)S(=O)(=O)c1cccc2nsnc12)c1ccccc1  0.24
19. COc1ccc(C(=O)Cc2ccc(OC)c(OC)c2)cc1  0.236
20. CCOC(=O)Cc1csc(NC(=O)CSc2nncn2C)n1  0.176
21. COC(=O)c1nonc1NCn1nnc2ccccc21  0.123
22. Cc1ccc2nc(N3CCN(S(=O)(=O)c4ccc5c(c4)OCCO5)CC3)c(C#N)cc2c1  0.11
23. CCC(NC(=O)Cn1cnc2c(=O)n(C)c(=O)n(C)c21)c1ccccc1 (stereo not drawn)  0.0869
24. O=C(NCC1CCNCC1)c1ccncc1  0.0804
25. Cc1cc(C(=O)CN2C(=O)NC(c3ccccc3)(c3ccccc3)C2=O)c(C)n1Cc1ccccc1  0.0764
26. Cc1cc[n+]2c3c(cccc13)CCC2  0.0571
27. C/C(=N\NC(=O)C1(C)CC1(Br)Br)c1ccc(NC(=O)c2ccc(C)o2)cc1 (stereo not drawn)  0.0535
28. O=C(Nc1cnn(Cc2ccc(Cl)cc2)c1)c1cnccn1  0.0508
29. O=C(CSc1nc2ccccc2s1)N1c2ccccc2Sc2ccccc21  0.0439
30. O=C(N/N=C\c1ccc(OC(=O)c2cccs2)cc1)c1ccc(Cl)cc1  0.0356
31. O=S(=O)(c1cccc2nsnc12)N1CCCC1  0.0295
32. Cc1cc(C)nc(N(C#N)CC(=O)N(c2ccccc2)C(C)C)n1  0.0248
33. COc1ccc(CC(NC(C)=O)C(=O)NC2CCN(C(=O)Nc3ccccc3Cl)CC2)cc1OC (stereo not drawn)  0.0243
34. COc1ccc(Cl)cc1NC(=O)C12CCC(C)(C(=O)O1)C2(C)C (stereo not drawn)  0.0212
35. C=CCn1c(SC(C)C(=O)NCc2ccc3c(c2)OCO3)nc2scc(-c3ccccc3)c2c1=O (stereo not drawn)  0.000751
36. O=C(Nc1ccc(F)cc1)c1nc[nH]c1C(=O)Nc1ccc([N+](=O)[O-])cc1  -0.0106
37. O=C(Nc1nnc(SCc2ccccc2Cl)s1)C1COc2ccccc2O1 (stereo not drawn)  -0.0164
38. CCc1c(C)sc(NC(=O)c2cc(-c3ccc(O)cc3)on2)c1C#N  -0.0198
39. COc1cccc(/C=N/Nc2ncc(C(F)(F)F)cc2Cl)c1O  -0.0203
40. Cc1c(C(=O)NC(C(C)C)C(C)C)cccc1[N+](=O)[O-]  -0.0419
41. COC(=O)/C(=C\Nc1ccc(OC)cc1)NC(=O)c1ccc(Cl)cc1Cl  -0.0425
42. O=C1CC(c2ccccc2)C(C(=O)O)N1 (stereo not drawn)  -0.0442
43. O=C(Cc1cccc2ccccc12)NC(NC(=S)Nc1ccccc1Cl)C(Cl)(Cl)Cl (stereo not drawn)  -0.0457
44. Cc1ccc(C2(C)NC(=O)N(CCOc3ccccc3)C2=O)cc1 (stereo not drawn)  -0.0535
45. Cc1ccnc(NC(=O)Nc2ccc(F)cc2)c1  -0.0587
46. COC(=O)c1cc(NC(=O)C2C3C=CC(C3)C2C(=O)O)cc(C(=O)OC)c1 (stereo not drawn)  -0.0594
47. CCc1ccc2nc3c(c(C(=O)O)c2c1)CCC3  -0.0608
48. Cc1ccc2cc(C(c3nnnn3C3CCCC3)N(Cc3ccco3)Cc3cccs3)c(=O)[nH]c2c1 (stereo not drawn)  -0.0643
49. C=CCn1c(SCC(=O)Nc2cc(C)on2)nc2sc(C)c(C)c2c1=O  -0.0679
50. O=C(Nc1cccc(F)c1)C1C2C=CC3(CN(CCCN4CCOCC4)C(=O)C13)O2 (stereo not drawn)  -0.0721
51. O=S(=O)(Nc1ccc(-c2nnc(SCc3ccc(Cl)cc3)o2)cc1)c1ccccc1  -0.0741
52. CCNc1nc(NCC)nc(C(=O)OCCO)n1  -0.0769
53. Cc1c(Cl)cnc(NC(=O)CSc2nncs2)c1Cl  -0.0786
54. CN(C(=O)Nc1ccc(Cl)cc1)c1c2c(nn1C)CCCC2  -0.08
55. COc1ccc(Nc2c3c(c(C#N)c4nc5ccccc5n24)CCC3)cc1  -0.0817
56. CCc1ccc(Nc2ncc3c(n2)CC(c2ccc(OC)cc2)CC3=O)cc1 (stereo not drawn)  -0.0834
57. O=C(CN(C(=O)c1ccccc1Cl)C1CCCCC1)Nc1ccc(Cl)c([N+](=O)[O-])c1  -0.105
58. COc1ccc(CNC(=O)c2cc(-c3ccc(OC)c(OC)c3)on2)cc1  -0.108
59. CCN(CC)S(=O)(=O)c1cccc(NC(=O)COC(=O)c2ccc(Br)o2)c1  -0.112
60. CC1(C)C2CCC1(CS(=O)(=O)N1CCCc3ccccc31)C(=O)C2 (stereo not drawn)  -0.115
61. CC1(C)CC(O)C(C(O)c2cccc([N+](=O)[O-])c2)C(C)(C)N1 (stereo not drawn)  -0.115
62. CS(=O)(=O)N(CC(=O)N1CCOCC1)c1ccc2c3c(cccc13)CC2  -0.129
63. O=C(CSc1nnc(-c2ccccn2)n1-c1ccc(Cl)cc1)Nc1ccc2c(c1)OCO2  -0.134
64. CCOC(=O)c1ccc(S(=O)(=O)NNC(=O)COc2ccccc2C)cc1  -0.143
65. CC(=O)NC1=NN(C(C)=O)C(C)(c2ccccc2)S1 (stereo not drawn)  -0.154
66. CCOc1ccccc1OCC(=O)Nc1ccc(Cl)cc1Cl  -0.155
67. CC1(C(=O)NC2CCCCCCC2)CC1(Cl)Cl (stereo not drawn)  -0.175
68. Cc1ccc(S(=O)(=O)N2CCCCC2)cc1NC(=O)C1CC(=O)N(Cc2ccccc2)C1 (stereo not drawn)  -0.177
69. CCOC(=O)c1cc(NC(=O)c2c(C)noc2C)cc(C(=O)OCC)c1  -0.178
70. CCOc1ccc(-c2nc(C#N)c(N3CCOCC3)o2)cc1  -0.185
71. O=C1Cn2c(nc3ccccc32)-c2ccccc2N1  -0.188
72. COc1cccc(C2CC(c3ccc(C)cc3)n3ncnc3N2)c1 (stereo not drawn)  -0.207
73. COc1ccccc1-c1cc(C(=O)N/N=C/C=C/c2ccccc2[N+](=O)[O-])c2ccccc2n1  -0.217
74. COc1ccc(S(=O)(=O)N2CCC(C(=O)NC3CC3)CC2)cc1Cl  -0.23
75. Cc1cc(C(=O)Nc2c(C)nn(Cc3c(Cl)cccc3Cl)c2C)no1  -0.237
76. Cc1ccc(OCC(=O)Nc2ccccc2Sc2ccccc2)c([N+](=O)[O-])n1  -0.243
77. Cc1ccc(C2=C/C(=C/c3cccnc3)C(=O)O2)c(C)c1  -0.254
78. CN(c1ccc(C(=O)NC2CC3CCC2C3)cc1)S(C)(=O)=O (stereo not drawn)  -0.256
79. CCOC(=O)C1C(=O)N(C(=O)c2cncc(Br)c2)CC1c1ccccc1 (stereo not drawn)  -0.264
80. Cc1ccccc1Nc1nnc(SCc2cc(=O)n3ccsc3n2)s1  -0.269
81. CC(=O)Nc1ccc(S(=O)(=O)NCc2cccnc2)cc1  -0.27
82. COc1ccc(C2C(=O)N(C3CCCCC3)CC(=O)N2C2CCCCC2)cc1 (stereo not drawn)  -0.274
83. COc1ccc(NC2=NCC(=O)N2Cc2cccs2)cc1  -0.276
84. CC(C)(C)C1CCc2c(sc(NC(=O)c3ccncc3)c2C(N)=O)C1 (stereo not drawn)  -0.29
85. COCCN(C(=O)Cc1cccs1)C(C(=O)NCc1ccc(OC)cc1)c1ccc(C(C)C)cc1 (stereo not drawn)  -0.312
86. O=C(O)CSc1nc2c(c(=O)[nH]1)CCCC2  -0.317
87. Cn1ncc(C#N)c1NC(=O)C1CC(c2ccc(Cl)c(Cl)c2)=NO1 (stereo not drawn)  -0.351
88. O=C(O)CCc1ccc(-c2ccc(Br)cc2)n1Cc1ccco1  -0.363
89. Cc1ccc(S(=O)(=O)/N=C(\N)Nc2nc(C)c3cc(C)ccc3n2)cc1  -0.37
90. CCOc1ccc(NC(=O)C23CC4CC(C2)CC(c2ccccc2)(C4)C3)cc1  -0.381
91. CCOC(CNC(=O)c1ccc2c(c1)nc(C)n2-c1cccc(F)c1)OCC  -0.4
92. Cc1[nH]n(-c2ccccc2)c(=O)c1C=Nc1ccc(S(=O)(=O)N(C)C)cc1  -0.431
93. O=C(CSc1nnc2c(Cl)cc(Cl)cn12)N1CCOCC1  -0.432
94. O=C(Nc1cccc(NC(=O)c2sc3ccccc3c2Cl)c1)c1ccco1  -0.446
95. O=C(Nc1ccc(-c2nc3ccccc3o2)cc1)C1CCCO1 (stereo not drawn)  -0.486
96. CC(=O)Nc1c2c3c(cccc3n(C)c1=O)C(=O)c1ccccc1-2  -0.498
97. O=C(COC(=O)[C@H](Cc1c[nH]c2ccccc12)NC(=O)c1cccs1)NCc1ccccc1  -0.557
98. COc1ccc(N(CC(=O)NCc2ccc3c(c2)OCO3)S(=O)(=O)c2c(C)nn(C)c2C)cc1  -0.575
99. CCC(C)n1cnc2c(=O)oc3ccccc3c21 (stereo not drawn)  -0.639
100. Cc1ccc2cc(CN(Cc3ccco3)C(=O)c3cccs3)c(=O)[nH]c2c1  -0.787
101. COc1ccc(CCNc2ncnc3c2oc2ccccc23)cc1OC  -0.847
102. Cn1c(NC(=O)C[n+]2cc(-c3ccc(F)cc3)n3c2CCC3)cc(=O)n(C)c1=O  -0.969
103. Nc1[nH]n2c(=O)c3c(nc2c1N=Nc1ccccc1)CCCC3  -1.13
104. CCCn1c(-c2cccs2)nc2nc3ccccc3nc21  -1.28

`C=CCn1c(=S)[nH]c2sc3c(c2c1=O)CCC3` was tested, and the z-score was active: 10.9.
In the case of `Cn1c(=O)c2c(nc(-n3ccnc3)n2Cc2ccccc2)n(C)c1=O`, the z-score is reported as active: -3.15.
With `O=[n+]1cc(-c2ccccc2)n([O-])c2c1CCC2` the z-score was active: -5.48.
With `O=C(O)CCSc1ccc2ccccc2n1` the z-score was -0.167 and -0.976.
